# Among all 310,000 compounds or so, about 14,000 (4.5%) showed an effect of 50% or more. Effects have a minus sign here. The list shows a part of the results.
# Target: human ether-à-go-go-related gene (hERG) potassium channel (human, UniProt Q12809)
# Experiment: primary screen, population patch clamp on CHO cells stably expressing hERG
# 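Further: peak tail current of the secondary pulse compared with the same well before compound.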
# Sequence of human ether-à-go-go-related gene (hERG) potassium channel (Q12809 whole entry, looked up): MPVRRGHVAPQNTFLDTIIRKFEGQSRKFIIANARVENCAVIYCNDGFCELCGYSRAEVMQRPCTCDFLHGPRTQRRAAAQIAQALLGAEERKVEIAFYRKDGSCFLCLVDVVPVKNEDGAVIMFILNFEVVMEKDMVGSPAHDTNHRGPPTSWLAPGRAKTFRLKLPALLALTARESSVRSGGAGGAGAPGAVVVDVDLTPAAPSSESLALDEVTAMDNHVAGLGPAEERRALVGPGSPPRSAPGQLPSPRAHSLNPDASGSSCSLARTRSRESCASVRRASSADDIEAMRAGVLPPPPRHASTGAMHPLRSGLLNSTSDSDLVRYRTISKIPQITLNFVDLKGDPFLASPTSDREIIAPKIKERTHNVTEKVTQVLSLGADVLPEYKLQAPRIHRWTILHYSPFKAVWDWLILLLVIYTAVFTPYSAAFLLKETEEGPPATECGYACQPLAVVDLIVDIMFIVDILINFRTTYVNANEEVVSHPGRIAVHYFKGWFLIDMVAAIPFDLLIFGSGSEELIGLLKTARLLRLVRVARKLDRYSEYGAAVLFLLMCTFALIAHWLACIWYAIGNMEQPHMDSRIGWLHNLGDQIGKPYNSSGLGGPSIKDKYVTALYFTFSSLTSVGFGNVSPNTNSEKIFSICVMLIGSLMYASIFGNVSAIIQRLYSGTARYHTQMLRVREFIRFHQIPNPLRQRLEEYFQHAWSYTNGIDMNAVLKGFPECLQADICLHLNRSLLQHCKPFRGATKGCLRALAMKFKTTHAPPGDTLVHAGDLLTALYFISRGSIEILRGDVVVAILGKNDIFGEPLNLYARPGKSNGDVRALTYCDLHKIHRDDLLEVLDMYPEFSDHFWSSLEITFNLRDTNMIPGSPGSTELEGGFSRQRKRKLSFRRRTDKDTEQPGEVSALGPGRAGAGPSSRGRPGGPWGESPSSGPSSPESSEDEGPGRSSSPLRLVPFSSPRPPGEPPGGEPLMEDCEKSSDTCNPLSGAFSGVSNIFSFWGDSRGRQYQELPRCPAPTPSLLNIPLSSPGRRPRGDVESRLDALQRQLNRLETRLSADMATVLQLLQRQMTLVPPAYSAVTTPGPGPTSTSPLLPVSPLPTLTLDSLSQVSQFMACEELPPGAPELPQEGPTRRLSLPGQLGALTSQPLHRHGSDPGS
row,Structure (SMILES),"hERG current change (%, negative = inhibition) at 10uM [%]"
1,CCOC(=O)c1[nH]c2ccc(OC)cc2c1NC(C)=O,-5.75
2,Cc1ccc(NC(=O)C(C)N2C(=O)C3CC=C(Cl)CC3C2=O)cc1 (centres unmarked),-3.06
3,COc1ccc(NC(=O)CSc2nnc(-c3ccco3)c(-c3ccco3)n2)cc1OC,-29.4
4,O=C(c1ccccc1)N1CCN(C(=O)N2CCOCC2)CC1,25.7
5,CCCCn1c(N)c(N(C)C(=O)c2ccc(-n3cccn3)cc2)c(=O)[nH]c1=O,0.138
6,CC(=O)c1ccc(NC(=O)CSc2ccc(-c3ccc(-n4cccn4)cc3)nn2)cc1,-7.65
7,COc1ccccc1C(=O)NC(=S)N1CCc2ccccc21,72.5
8,CCN(CC)C(=O)Nc1cnc2ccccc2c1,5.1
9,CCOc1ccc(Cl)cc1S(=O)(=O)N1CCC(C(=O)NCc2ccncc2)CC1,-10.5
10,COc1ccc(C2=NOC(C(=O)O)C2)cc1 (centres unmarked),3.25
11,O=C(O)c1ccc(CN2C(=O)c3ccc(Oc4ccc([N+](=O)[O-])cc4)cc3C2=O)cc1,1.34
12,C=CCNC(=O)C1CC(=O)N(c2ccc(OCC(=O)Nc3ccc(Cl)cc3)cc2)C1 (centres unmarked),18.6
13,Cl.O=C(CCN1CCc2ccccc2C1)c1ccc2c(c1)OCCO2,-32.2
14,CCOC(=O)c1ccc(NC(=O)CN2C(=O)CSC2=O)cc1,-6.34
15,COc1ccc(C2C(C(=O)N3CCN(C)CC3)c3cc(OC)c(OC)cc3C(=O)N2C)cc1 (centres unmarked),4.02
16,O=C(CCn1c(=S)[nH]c2cc3c(cc2c1=O)OCO3)N1CCc2ccccc2C1,-26.5
17,O=S(=O)(NCCc1ccccc1)c1cccc(S(=O)(=O)N2CCOCC2)c1,-11.6
18,NC(=O)c1ccccc1NC(=O)COC(=O)C1(c2ccccc2)CC1,-6.94
19,COc1ccc(C2c3cc(OC)c(OC)cc3CCN2C(=O)c2ccccc2)cc1OC (centres unmarked),2.95
20,CCOC(=O)CSc1nc2cc(C(=O)NCc3ccco3)ccc2c(=O)n1-c1ccc(F)cc1,-7.69
21,O=C(NCC(=O)N(Cc1cccs1)C(C(=O)NC1CCCCC1)c1ccco1)c1cccs1 (centres unmarked),-16.6
22,CC1CCCC(C)N1CCCNC(=O)c1ccc2nc(N3CCCCC3)sc2c1 (centres unmarked),-38

row,Structure (SMILES),"hERG current change (%, negative = inhibition) at 10uM [%]"
1,Cc1oc(-c2ccc(Cl)cc2)nc1CS(=O)CC(=O)NC1CCCC1 (centres unmarked),-11.8
2,COc1cc2cc(C(=O)N/N=C/c3cccc(OC)c3OC)[nH]c2cc1OC,14
3,Cc1cccc(N(CC(=O)NC2CCCCC2)C(=O)c2c(C)noc2C)c1,13.3
4,NC(=O)c1ccc(SCC(=O)OCC(=O)N2CCCC2=O)c([N+](=O)[O-])c1,-7.67
5,O=C(/C=C/c1ccccc1)NCCc1ccc2c(c1)OCCO2,-31.1
6,CCN(CC)CCCNC(=S)N1CCC(c2nc3ccccc3[nH]2)CC1,9.2
7,O=C1C2CCCN2C(c2ccccc2)N1c1ccc(F)cc1 (centres unmarked),0.786
8,CCC(=O)N(Cc1ccco1)C1CC(=O)N(c2ccccc2)C1=O (centres unmarked),-49.2
9,Nc1cc(Cl)ccc1C(=O)OCC(=O)N1CCOCC1,23.2
10,Cc1nc2ccccc2c(=O)n1/N=C/c1cc(Br)cc(Br)c1O,7.17
11,COc1ccc(-n2nc(C(=O)NCC(=O)N3CCN(c4ccccc4F)CC3)c3ccccc3c2=O)cc1OC,-9.27
12,O=c1[nH]c2ccccc2[n+]([O-])c1-c1ccccc1,17.3
13,CCOc1ccc(C(=O)NCC(=O)NCC(c2ccco2)N2CCCCC2)cc1 (centres unmarked),3.68
14,O=C(Cc1cccs1)Nc1ccc(-c2nnn(CC(=O)N3CCOCC3)n2)cc1,5.87
15,CC1CCCN(C(=O)CSc2nnc(-c3ccco3)n2C)C1 (centres unmarked),9.42
16,Cc1cc(C)c2c(n1)nn1c(NCCCN(C)C)cc(C)nc21,-19.3
17,COC(=O)C1CCN(C(=O)COC(=O)c2oc3ccccc3c2C)CC1,-23.9
18,O=C(NCCc1ccccc1)C1CCN(C(=O)c2sccc2-n2cccc2)CC1,-9.44
19,O=[N+]([O-])c1cccc(S(=O)(=O)Nc2cccc(-c3ccc(N4CCOCC4)nn3)c2)c1,-11.8
20,COc1ccc(OC)c(NC(=O)C2CCN(Cc3cnn(-c4ccccc4)c3-n3cccc3)CC2)c1,-28.6
21,COc1ccc(CC(=O)Nc2nc(-c3ccc(F)c(F)c3)cs2)cc1,-3.93
22,O=C(Nc1cccc(-c2nn[nH]n2)c1)c1ccc(Br)s1,9.22

# — publication PMC4336329 (PLoS ONE, 2015)
